{"source": "paper PMC2627783", "about": "(Biochemistry, 2008)", "binders": {"B1": {"name": "IscU (apo form) (natural protein, E. coli, UniProt P0ACD4 1-128, looked up)", "chain": "MAYSEKVIDHYENPRNVGSFDNNDENVGSGMVGAPACGDVMKLQIKVNDEGIIEDARFKTYGCGSAIASSSLVTEWVKGKSLDEAQAIKNTDIAEELELPPVKIHCSILAEDAIKAAIADYKSKREAK"}}, "key": {"[1]": {"target": "T1, HscB(E97A,E100A,E104A) (E. coli, UniProt P0A6L9 1-171, E97A | E100A | E104A)", "T1 sequence (looked up)": "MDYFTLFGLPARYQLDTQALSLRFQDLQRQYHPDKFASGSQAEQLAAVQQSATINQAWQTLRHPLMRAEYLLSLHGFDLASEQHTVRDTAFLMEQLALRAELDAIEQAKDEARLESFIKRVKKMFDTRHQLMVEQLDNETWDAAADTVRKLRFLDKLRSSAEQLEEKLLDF", "test": "cell-based or functional assay"}, "[2]": {"target": "T2, HscB(L92A,M93A,F153A) (E. coli, UniProt P0A6L9 1-171, L92A | M93A | F153A)", "T2 sequence (looked up)": "T1 sequence (looked up) with L92A, M93A, A97E, A100E, A104E, F153A", "test": "cell-based or functional assay"}}, "note": "Substitutions are numbered along the chain they refer to."}
{"binder": "B1", "values": [{"measurement": "HscA ATPase activity, 23 °C, with HscB mutant and IscU: maximal stimulation", "setting": "[1]", "value": 404, "unit": "fold"}, {"measurement": "HscA ATPase activity, 23 °C, with HscB mutant and IscU: maximal stimulation", "setting": "[2]", "value": 97, "unit": "fold"}]}
